These are yes or no findings as the source states them, for the method shown. Some entries that bind do so weakly or less than the wild type.

Protein sequences, listed by entry. Tags and fused reporters are not part of them. Lines headed by an entry give the natural chain unless they say otherwise; changes in a name come on top. Chains listed by the source or under a name are the forms on record and can include a tag or linker. Residues count along the entry.
UniProt P42639: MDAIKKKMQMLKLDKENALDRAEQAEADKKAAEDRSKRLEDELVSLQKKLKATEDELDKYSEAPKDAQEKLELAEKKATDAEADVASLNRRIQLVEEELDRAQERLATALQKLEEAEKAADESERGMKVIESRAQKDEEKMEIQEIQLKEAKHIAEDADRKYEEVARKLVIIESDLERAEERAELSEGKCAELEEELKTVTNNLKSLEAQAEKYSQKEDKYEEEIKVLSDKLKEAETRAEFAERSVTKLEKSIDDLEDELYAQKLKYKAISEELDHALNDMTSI
UniProt Q9UEW3, residues 79-520: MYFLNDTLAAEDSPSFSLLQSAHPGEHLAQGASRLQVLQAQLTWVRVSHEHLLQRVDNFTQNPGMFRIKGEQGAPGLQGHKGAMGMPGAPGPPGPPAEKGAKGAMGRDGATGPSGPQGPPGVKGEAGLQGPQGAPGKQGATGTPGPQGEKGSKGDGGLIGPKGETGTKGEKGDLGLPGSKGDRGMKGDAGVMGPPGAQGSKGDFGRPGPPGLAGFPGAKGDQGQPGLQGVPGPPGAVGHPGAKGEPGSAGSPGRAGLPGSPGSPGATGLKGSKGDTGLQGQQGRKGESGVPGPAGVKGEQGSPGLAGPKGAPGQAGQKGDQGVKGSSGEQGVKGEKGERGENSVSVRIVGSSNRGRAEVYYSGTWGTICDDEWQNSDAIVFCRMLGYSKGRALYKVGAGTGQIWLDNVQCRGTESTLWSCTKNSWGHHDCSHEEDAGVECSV
UniProt P29279, residues 27-349: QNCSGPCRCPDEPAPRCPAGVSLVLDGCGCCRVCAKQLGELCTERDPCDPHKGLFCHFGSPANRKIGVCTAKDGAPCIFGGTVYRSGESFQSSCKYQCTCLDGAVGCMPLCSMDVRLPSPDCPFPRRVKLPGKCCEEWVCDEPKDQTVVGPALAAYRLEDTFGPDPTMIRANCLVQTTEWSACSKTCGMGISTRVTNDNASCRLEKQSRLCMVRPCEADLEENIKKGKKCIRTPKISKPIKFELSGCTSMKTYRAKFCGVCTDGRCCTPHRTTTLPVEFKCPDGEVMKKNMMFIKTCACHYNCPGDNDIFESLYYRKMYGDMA
UniProt P02452: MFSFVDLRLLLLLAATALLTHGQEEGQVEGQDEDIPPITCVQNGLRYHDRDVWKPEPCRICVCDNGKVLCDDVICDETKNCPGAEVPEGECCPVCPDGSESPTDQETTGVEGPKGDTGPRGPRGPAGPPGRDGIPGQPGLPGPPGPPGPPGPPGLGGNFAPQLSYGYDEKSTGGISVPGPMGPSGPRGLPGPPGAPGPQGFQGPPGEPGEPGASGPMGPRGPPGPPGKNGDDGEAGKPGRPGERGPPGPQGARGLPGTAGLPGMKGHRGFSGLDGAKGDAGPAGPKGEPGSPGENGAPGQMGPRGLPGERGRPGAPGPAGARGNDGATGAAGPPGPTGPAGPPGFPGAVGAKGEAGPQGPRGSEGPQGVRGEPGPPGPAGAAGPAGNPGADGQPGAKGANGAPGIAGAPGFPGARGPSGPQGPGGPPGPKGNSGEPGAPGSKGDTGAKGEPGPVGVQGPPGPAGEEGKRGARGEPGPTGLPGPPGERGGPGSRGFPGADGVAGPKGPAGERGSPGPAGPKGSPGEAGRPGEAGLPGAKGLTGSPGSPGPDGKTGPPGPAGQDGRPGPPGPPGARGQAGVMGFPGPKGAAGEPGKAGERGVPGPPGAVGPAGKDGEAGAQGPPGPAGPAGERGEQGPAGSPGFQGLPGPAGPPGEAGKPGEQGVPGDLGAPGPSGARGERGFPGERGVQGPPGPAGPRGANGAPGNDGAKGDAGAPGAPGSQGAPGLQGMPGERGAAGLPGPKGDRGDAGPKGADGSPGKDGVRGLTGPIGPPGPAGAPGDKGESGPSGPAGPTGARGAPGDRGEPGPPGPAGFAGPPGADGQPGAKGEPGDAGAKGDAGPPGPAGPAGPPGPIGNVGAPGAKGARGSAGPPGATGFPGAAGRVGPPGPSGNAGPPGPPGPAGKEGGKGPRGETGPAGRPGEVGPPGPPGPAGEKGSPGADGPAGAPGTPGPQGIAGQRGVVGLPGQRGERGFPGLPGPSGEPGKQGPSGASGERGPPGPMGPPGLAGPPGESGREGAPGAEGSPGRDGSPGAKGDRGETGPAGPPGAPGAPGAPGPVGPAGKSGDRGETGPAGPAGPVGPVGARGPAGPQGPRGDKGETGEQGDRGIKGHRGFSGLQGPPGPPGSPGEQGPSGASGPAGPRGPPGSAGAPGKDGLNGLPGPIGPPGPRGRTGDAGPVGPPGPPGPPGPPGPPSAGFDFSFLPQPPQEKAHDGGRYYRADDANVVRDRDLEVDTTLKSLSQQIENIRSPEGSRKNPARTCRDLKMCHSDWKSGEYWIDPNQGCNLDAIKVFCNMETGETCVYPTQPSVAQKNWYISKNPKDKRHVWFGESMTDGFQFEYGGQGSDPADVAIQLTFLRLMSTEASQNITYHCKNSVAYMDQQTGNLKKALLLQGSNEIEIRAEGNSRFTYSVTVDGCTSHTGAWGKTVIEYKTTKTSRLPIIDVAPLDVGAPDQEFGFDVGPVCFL
UniProt P04004, residues 20-478: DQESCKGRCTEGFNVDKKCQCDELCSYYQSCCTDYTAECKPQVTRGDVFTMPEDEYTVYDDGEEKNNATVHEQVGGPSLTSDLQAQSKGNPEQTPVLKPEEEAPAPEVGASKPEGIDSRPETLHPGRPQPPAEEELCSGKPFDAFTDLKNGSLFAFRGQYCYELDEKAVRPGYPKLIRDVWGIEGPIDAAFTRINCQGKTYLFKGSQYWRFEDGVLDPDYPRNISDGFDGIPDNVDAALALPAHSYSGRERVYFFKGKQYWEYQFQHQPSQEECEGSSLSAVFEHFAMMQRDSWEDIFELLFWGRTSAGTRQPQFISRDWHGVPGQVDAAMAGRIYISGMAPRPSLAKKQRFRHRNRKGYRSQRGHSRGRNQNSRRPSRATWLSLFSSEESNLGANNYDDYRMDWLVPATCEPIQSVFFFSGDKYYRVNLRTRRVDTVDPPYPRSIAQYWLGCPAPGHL
UniProt P13612: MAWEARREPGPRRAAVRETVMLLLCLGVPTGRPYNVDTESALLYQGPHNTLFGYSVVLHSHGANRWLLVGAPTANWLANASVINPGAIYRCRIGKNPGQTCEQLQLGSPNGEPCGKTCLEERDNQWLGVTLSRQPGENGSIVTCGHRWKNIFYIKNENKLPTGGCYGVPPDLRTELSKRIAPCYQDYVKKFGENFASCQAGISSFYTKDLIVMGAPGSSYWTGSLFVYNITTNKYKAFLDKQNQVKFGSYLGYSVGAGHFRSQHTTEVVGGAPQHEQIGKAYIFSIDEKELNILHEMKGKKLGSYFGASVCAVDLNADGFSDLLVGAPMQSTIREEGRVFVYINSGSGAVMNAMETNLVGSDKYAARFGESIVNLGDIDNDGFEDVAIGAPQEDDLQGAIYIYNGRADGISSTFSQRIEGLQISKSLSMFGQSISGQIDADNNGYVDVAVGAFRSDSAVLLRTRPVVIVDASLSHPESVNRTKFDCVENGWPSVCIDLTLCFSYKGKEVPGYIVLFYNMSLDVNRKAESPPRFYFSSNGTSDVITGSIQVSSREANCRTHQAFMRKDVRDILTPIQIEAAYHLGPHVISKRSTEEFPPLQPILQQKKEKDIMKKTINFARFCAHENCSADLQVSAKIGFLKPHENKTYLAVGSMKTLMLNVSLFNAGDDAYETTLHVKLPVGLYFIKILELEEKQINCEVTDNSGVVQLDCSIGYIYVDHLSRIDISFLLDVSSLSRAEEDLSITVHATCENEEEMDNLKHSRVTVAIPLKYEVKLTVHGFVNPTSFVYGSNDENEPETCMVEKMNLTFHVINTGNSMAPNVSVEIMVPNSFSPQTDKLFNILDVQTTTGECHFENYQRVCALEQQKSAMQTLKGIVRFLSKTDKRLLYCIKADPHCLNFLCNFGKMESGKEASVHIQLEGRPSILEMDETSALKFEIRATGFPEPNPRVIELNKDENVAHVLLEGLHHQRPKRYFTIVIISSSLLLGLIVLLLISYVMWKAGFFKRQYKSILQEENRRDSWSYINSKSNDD
Lysyl oxidase propeptide (LOX-PP) (Pro24Leu) (P28300, form named): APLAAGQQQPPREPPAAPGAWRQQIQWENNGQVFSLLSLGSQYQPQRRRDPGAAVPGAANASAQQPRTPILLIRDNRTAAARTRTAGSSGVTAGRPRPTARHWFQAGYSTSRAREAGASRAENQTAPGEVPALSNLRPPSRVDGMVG

What all share (experiment): SPR; SPR imaging (SPRi, Biacore Flexchip): partners spotted in triplicate on a bare gold chip at 0.06 to 1 mg/ml; purified LOX-PP injected at 2 µM and recirculated for 20 min; PBS with 0.05% Tween 20, 25 °C; both purified
(SPR reads the build-up and loss of mass on a sensor chip optically.)

Experiment [1] deals with Tropomyosin (UniProt P42639).
Experiment [2] concerns the target T1, Reelin (UniProt Q60841).
T1 sequence: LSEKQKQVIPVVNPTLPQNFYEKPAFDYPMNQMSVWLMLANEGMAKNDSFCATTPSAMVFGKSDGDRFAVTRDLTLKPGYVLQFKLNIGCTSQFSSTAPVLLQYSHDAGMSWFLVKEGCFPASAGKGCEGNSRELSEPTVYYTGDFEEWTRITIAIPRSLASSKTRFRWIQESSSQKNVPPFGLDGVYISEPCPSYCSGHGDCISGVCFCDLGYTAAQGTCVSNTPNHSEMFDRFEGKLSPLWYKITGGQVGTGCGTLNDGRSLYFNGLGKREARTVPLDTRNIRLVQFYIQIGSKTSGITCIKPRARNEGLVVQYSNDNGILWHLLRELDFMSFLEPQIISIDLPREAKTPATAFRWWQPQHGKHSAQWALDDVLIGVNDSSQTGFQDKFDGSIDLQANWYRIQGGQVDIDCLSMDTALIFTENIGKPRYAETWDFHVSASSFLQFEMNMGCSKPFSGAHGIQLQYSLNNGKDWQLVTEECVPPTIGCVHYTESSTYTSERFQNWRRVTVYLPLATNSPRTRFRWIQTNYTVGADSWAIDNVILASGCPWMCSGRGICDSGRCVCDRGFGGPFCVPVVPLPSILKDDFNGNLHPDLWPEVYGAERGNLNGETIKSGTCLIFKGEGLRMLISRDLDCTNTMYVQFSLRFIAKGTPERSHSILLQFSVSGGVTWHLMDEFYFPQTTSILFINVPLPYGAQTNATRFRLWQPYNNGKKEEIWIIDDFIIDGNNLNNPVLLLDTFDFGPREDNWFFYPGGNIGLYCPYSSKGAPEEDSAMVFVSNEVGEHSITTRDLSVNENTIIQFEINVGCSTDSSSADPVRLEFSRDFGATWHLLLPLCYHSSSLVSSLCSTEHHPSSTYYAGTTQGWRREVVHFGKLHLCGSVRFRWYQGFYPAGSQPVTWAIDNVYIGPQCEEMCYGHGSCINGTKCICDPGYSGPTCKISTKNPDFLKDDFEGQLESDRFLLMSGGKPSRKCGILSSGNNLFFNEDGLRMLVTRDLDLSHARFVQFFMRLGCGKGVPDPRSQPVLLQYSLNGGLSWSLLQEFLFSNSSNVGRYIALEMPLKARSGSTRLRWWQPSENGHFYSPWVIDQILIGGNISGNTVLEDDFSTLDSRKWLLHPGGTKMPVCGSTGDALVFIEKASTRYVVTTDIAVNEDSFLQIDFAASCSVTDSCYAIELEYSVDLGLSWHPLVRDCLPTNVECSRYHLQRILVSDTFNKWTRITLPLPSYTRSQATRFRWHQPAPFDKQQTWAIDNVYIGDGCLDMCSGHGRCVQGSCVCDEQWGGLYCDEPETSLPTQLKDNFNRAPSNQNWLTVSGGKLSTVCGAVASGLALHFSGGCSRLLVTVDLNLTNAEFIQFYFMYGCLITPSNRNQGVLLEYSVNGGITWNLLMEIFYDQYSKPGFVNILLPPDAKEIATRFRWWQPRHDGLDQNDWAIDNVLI

The target in experiment [3] is Macrophage receptor MARCO (UniProt Q9UEW3).
The target of experiment [4] is Connective tissue growth factor (CTGF) (UniProt P29279).
Experiment [5] deals with T2, Angiopoietin-like protein 4 (AngPTL-4), mutant Lys163Ala, Arg164Ala (UniProt Q9BY76).
T2 sequence: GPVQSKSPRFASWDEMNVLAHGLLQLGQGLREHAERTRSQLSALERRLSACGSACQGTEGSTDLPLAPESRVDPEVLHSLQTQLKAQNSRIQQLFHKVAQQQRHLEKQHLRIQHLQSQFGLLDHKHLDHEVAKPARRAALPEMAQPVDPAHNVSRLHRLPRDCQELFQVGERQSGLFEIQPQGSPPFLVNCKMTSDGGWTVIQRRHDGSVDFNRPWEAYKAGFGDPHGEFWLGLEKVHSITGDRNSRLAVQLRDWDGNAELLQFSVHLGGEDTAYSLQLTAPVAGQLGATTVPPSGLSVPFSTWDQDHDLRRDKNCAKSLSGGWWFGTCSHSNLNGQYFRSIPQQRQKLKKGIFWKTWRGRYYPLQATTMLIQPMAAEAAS

In experiment [6] the target is Collagen I (UniProt P02452).
Experiment [7] deals with Vitronectin (UniProt P04004).
Experiment [8] addresses Integrin α4β1 ectodomain (UniProt P13612).

For the substance “Lysyl oxidase propeptide (LOX-PP) (Pro24Leu) (from UniProt P28300 22-168) (domain or fragment)”, the binding entry in experiment [1] is listed as “no binding (tested: 2 µM)”; in experiment [2] it was “no binding (tested: 2 µM)”; in experiment [3] it was “no binding (tested: 2 µM)”; in experiment [4], “no binding (tested: 2 µM)”; in experiment [5], “no binding (tested: 2 µM)”; in experiment [6], “binds”. Moreover, the binding result in experiment [7] and in experiment [8] was “no binding (tested: 2 µM)” in each case.

Values taken from PMC6078952.
